Results as given in PubChem BioAssay AID686979 (National Center for Advancing Translational Sciences (NCATS), 2013).
Out of some 420,000 compounds screened, about 50,000 (12%) were called active. This list was built around the results that the source calls inconclusive (neither active nor inactive); the mix of calls is not that of the screen. Calls follow the shape of the dose curve; as a rule, active = well fitted inhibition curve with a large enough effect; inconclusive = small, poorly fitted or top-dose-only effect; inactive = flat fitted curve, though single readings scatter. No potency is given beside an inconclusive call; the fits are too rough. More than one record can exist for a structure, and the calls need not agree.

Assay: qHTS for Inhibitors of human tyrosyl-DNA phosphodiesterase 1 (TDP1): qHTS in cells in presence of CPT; also: nearly all actives have a fitted effect of over 55% in size
Conditions: chicken DT40 Tdp1-/-;hTDP1 cells + 20 nM CPT, ATP luminescence, 48 h; activity change, negative = growth inhibition: at 46.2 µM (top of the series) unless noted
Method in brief: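 Chicken DT40 Tdp1-/- cells stably complemented with human TDP1 were seeded at 400 cells/well in medium containing 20 nM camptothecin, exposed to pin-transferred compounds, and grown at 37 °C for at least 48 hr. Viability was read as ATP luminescence.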
% is scaled to controls: 0 for no effect and ±100 for the full control effect; potency is read from the fitted curve at half-maximal effect; tags tell the direction and shape of the fitted curve.

Row | SMILES | Potency | activity change, negative = growth inhibition
1 | O=C(Nc1cccc(S(=O)(=O)N2CCCCC2)c1)c1ccccc1NS(=O)(=O)c1ccc(F)cc1 | inconclusive [inhibitor, single point] | –
2 | CC(C)Nc1nc(NCCN2CCNC2=O)c2sccc2n1 | – | inactive: 10.4%
3 | Cc1ccc(C(=O)c2coc3ccc(O)c(CN4CCN(C)CC4)c23)cc1 | active: 13 µM | –
4 | O=C(CCC1CCCN(C(=O)c2ccc3c(c2)OCO3)C1)NCc1ccc(F)c(F)c1 (centres undefined) | inconclusive [inhibitor, single point] | –
5 | CC(C)=NNc1nc2c(c(=O)n(C)c(=O)n2C)n1CCc1ccccc1 | – | inconclusive: -5.76% [inhibitor]
6 | COc1cccc(CNC(=O)C2CCN(S(=O)(=O)c3ccc4c(c3)CC(C)N4C(=O)C3CC3)CC2)c1 (centres undefined) | inconclusive [inhibitor, single point] | –
7 | Cc1ccc(S(=O)(=O)N2CCC(C(=O)OCC(=O)N3CCCCC3C)CC2)cc1C (centres undefined) | – | inconclusive: 3.31% [inhibitor]
8 | CCOC(=O)c1ccc(NC(=O)C2CCCN(c3ncnc4onc(-c5ccc(F)cc5)c34)C2)cc1 (centres undefined) | active: 20.6 µM | –
9 | CCOC(=O)C1(N(CC)CC)Sc2cc(C)ccc2NC1=O (centres undefined) | active: 16.4 µM | –
10 | NC(=O)COC(=O)c1cccc(S(=O)(=O)N2CCN(c3ccccc3)CC2)c1 | – | inactive: -3.45%
11 | COc1ccc(NC(=O)C2CC2(Cl)Cl)cc1S(=O)(=O)N1CCCCC1 (centres undefined) | inconclusive [inhibitor, single point] | –
12 | COc1cccc(CNC(=O)c2sc3nc(C)cc(C)c3c2-n2cccc2)c1OC | active: 23.1 µM | –
13 | Cc1ccc(C)c(N2CCN(C(=O)c3cc4ccccn4n3)CC2)c1 | inconclusive [inhibitor, single point] | –
14 | N#CC1(NC(=O)CN2C(=O)c3ccc([N+](=O)[O-])cc3C2=O)CCCCC1 | – | inactive: -3.3%
15 | Cc1c(C(=O)NCc2ccccc2)sc2nc3n(c(=O)c12)CCCCC3 | inconclusive [inhibitor, single point] | –
16 | Cc1ccc(-c2c3c(nc4sc(C(N)=O)c(N)c24)CCC3)cc1 | inconclusive [inhibitor, single point] | –
17 | COc1ccc(-c2nc(CS(=O)CC(=O)NCCCN3CCCC(C)C3)c(C)o2)cc1OC (centres undefined) | – | inactive: 14.7%
18 | CCOc1ccc(NC(=O)C2CC(=O)NC(=Nc3ccc(Cl)c(Cl)c3)S2)cc1 (centres undefined) | – | inactive: -15.6%
19 | NC(=O)C1CCN(C(=O)C2CC(=O)N(c3ccc4c(c3)OCCO4)C2)CC1 (centres undefined) | – | inactive: -8.73%
20 | Cc1ccc(CSC2=Nc3ccccc3C3=NC(CCC(=O)NCc4ccco4)C(=O)N23)cc1 (centres undefined) | – | inactive: -16.5%
21 | CCN(c1cccc(C)c1)S(=O)(=O)c1ccc2c(c1)CCN2C(C)=O | inconclusive [inhibitor, single point] | –
22 | Cc1cc(C(=O)CSc2nnc(N)s2)c(C)n1Cc1cccs1 | inconclusive [inhibitor, single point] | –

Row | SMILES | Potency | activity change, negative = growth inhibition
23 | COC(=O)c1sccc1S(=O)(=O)N1CCN(c2cc(Cl)ccc2C)CC1 | inconclusive [inhibitor, partial curve] | –
24 | O=C(CNC(=O)N1CC(=O)Nc2ccccc21)NCCc1c[nH]c2ccccc12 | – | inactive: -2.8%
25 | COC(=O)C(Cc1c[nH]c2ccccc12)NC(=O)COc1cccc(C)c1 (centres undefined) | – | inactive: -19.6%
26 | COCCNc1oc(/C=C/c2ccccc2OC)nc1S(=O)(=O)c1ccccc1 | inconclusive [inhibitor, single point] | –
27 | CC1CN(CCCCOc2ccc3ccccc3c2)CC(C)O1 (centres undefined) | inconclusive [inhibitor, single point] | –
28 | Cc1cc(N2CCOCC2)nc2ccc(NC(=S)NCCN(C)C)cc12 | – | inactive: -1.17%
29 | COCCCn1c(C)nnc1SCC(=O)NCc1ccco1 | – | inactive: -10.1%
30 | Cc1ccc(Cl)cc1N1CCN(C(=O)c2ccc(NC(=O)c3nsc4ccccc34)cc2)CC1 | inconclusive [inhibitor, single point] | –
31 | COc1ccccc1C1CCN(Cc2ccc(Cl)c(Cl)c2)CC1 | inconclusive [inhibitor, single point] | –
32 | COc1ccc(CNC(=O)C[C@H]2C[C@H](C(=O)N3CCCCC3)[C@@]3(CCc4ccccc4)c4[nH]c5cc(-c6ccco6)ccc5c4CCN3C2=O)cc1OC | inconclusive [inhibitor, single point] | –
33 | O=C(NC1(O)C(=O)c2ccccc2C1=O)c1c(Cl)cccc1Cl | inconclusive [inhibitor, single point] | –
34 | COC(=O)c1ccccc1NC(=O)Cc1ccccc1OC | inconclusive [inhibitor, single point] | –
35 | Cc1ccc(NC(=O)c2oc3ccc(S(=O)(=O)N4CCC5(CC4)OCCO5)cc3c2C)cc1C | active: 8.2 µM | –
36 | CCCCCCCCC(=O)N/N=C(\C)c1ccco1 | inconclusive [inhibitor, partial curve] | –
37 | O=C1C=CC(=O)c2c(O)c(N3CCN(CCOCCO)CC3)c(Br)c(O)c21 | active: 0.651 µM | –
38 | CNC(=O)c1ccc(NC(=O)c2ccccc2OCc2c(C)noc2C)cc1 | inconclusive [inhibitor, partial curve, poor fit] | –
39 | Cc1cc(C)c(NC(=O)COC(=O)c2cccc3c2C(=O)c2ccccc2C3=O)c(C)c1 | inconclusive [inhibitor, single point] | –
40 | Cc1cccc(C(=O)NNC(=O)C23CC4CC(CC(C4)C2)C3)c1O | inconclusive [inhibitor, single point] | –
41 | Cc1cc(C)cc(Nc2ncnc3nc[nH]c23)c1 | inconclusive [inhibitor, partial curve, poor fit] | –
42 | O=C(Nc1nc(-c2ccccn2)cs1)C1COc2ccccc2O1 (centres undefined) | active: 3.26 µM | –
43 | O=C(C1CCCN(S(=O)(=O)c2ccc(F)cc2)C1)N(Cc1cccs1)C1CC1 (centres undefined) | active: 13 µM | –
44 | N#C/C(=C\c1ccc(-c2cccc(Cl)c2)o1)C(=O)Nc1cccc2cccnc12 | inconclusive [inhibitor, partial curve, poor fit] | –
